# Measurements published in PubChem BioAssay AID686979 (National Center for Advancing Translational Sciences (NCATS), 2013).
# In all, about 420,000 compounds went through this assay and about 50,000 (12%) were called active. Inconclusive results, whose numbers are uncertain, are shown with a selection of clear calls. The call rests on the fitted dose curve; in most records, active means well fitted inhibition curve with a large enough effect; inconclusive means small, poorly fitted or top-dose-only effect; inactive means flat fitted curve, though single readings scatter. No potency is given beside an inconclusive call; the fits are too rough.
# Assay: qHTS for Inhibitors of human tyrosyl-DNA phosphodiesterase 1 (TDP1): qHTS in cells in presence of CPT; further: nearly all actives have a fitted effect of over 55% in size
# Settings: chicken DT40 Tdp1-/-;hTDP1 cells + 20 nM CPT, ATP luminescence, 48 h; activity change, negative = growth inhibition: at 46.2 µM (top of the series) unless noted
# Outline: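 Chicken DT40 Tdp1-/- cells stably complemented with human TDP1 were seeded at 400 cells/well in medium containing 20 nM camptothecin, exposed to pin-transferred compounds, and grown at 37 °C for at least 48 hr. Viability was read as ATP luminescence.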
# On the % scale 0 is the no-effect control and ±100 the full control effect; potency means the concentration at half of the fitted maximal effect; tags describe the fitted curve by direction and shape.
Compound,Potency,"activity change, negative = growth inhibition"
COC(=O)c1sc(N2C(=O)c3oc4ccc(C)cc4c(=O)c3C2c2ccc(O)c(OC)c2)nc1C (configuration not stated),"inconclusive [inhibitor, single point]",–
CCC(C)(C)C1CCC(=NNC(=S)Nc2cccnc2)CC1 (configuration not stated),"inconclusive [inhibitor, single point]",–
N=C(N1CCCc2ccccc21)N1CCCc2ccccc21,active: 16.4 µM,–
CCCCn1c(N)c(N(CCOC)C(=O)c2ccc(Cl)c(S(=O)(=O)N3CCCCC3)c2)c(=O)[nH]c1=O,inactive,–
Cc1ccccc1OCC(=O)NCC(C)(C)N1CCOCC1,inactive,–
Cc1ccc(S(=O)(=O)N(CC(=O)N2CCC(C)CC2)c2cccc(C)c2)cc1,"inconclusive [inhibitor, single point]",–
CCOc1ccc(N(C(C)=O)c2nc(C)cc(C)c2C#N)cc1,inactive,–
Cc1ccc(CN2C[C@H](Sc3ccccn3)C[C@H]2C(=O)Nc2ccc3sc(C)nc3c2)cc1,–,inactive: 3.21% [at 9.04 µM]
Cc1cc(SCc2cc(=O)[nH]c3ccccc23)nc2ccccc12,active: 23.1 µM,–
Cc1ccccc1Nc1nc(NCc2ccco2)c2ccccc2n1,active: 5.8 µM,–
CN(C)S(=O)(=O)c1ccc(C(=O)OCCn2cnc3c2c(=O)n(C)c(=O)n3C)cc1,"inconclusive [inhibitor, partial curve, poor fit]",–
Cc1cccc(N=C2NC(=O)c3cc([N+](=O)[O-])ccc32)c1,inactive,–
Cc1ccc(-c2nc3ccccc3[nH]2)cc1NC(=O)c1ccco1,inactive,–
CCOC(=O)C(=O)c1csc(NC(=O)COc2ccc(N(C)S(=O)(=O)c3ccc(F)cc3)cc2)n1,inactive,–
COc1ccccc1Cn1c(=S)[nH]c2cc(C(=O)N3CC(C)CC(C)C3)ccc2c1=O (configuration not stated),"inconclusive [inhibitor, single point]",–
CCOc1ccc2nc3cc(NCc4ccc(OC)cc4)ccc3c(N)c2c1,active: 14.6 µM,–
CC(C)C(=O)N1CCN(c2ccccc2NC(=O)COc2ccc(C3CCCCC3)cc2)CC1,"inconclusive [inhibitor, single point]",–
COc1ccc(CCNc2nc(SCc3ccccc3F)nc3ccccc23)cc1OC,active: 3.66 µM,–
CP(=O)(Nc1cc(Cl)ccc1Cl)c1nc2c(s1)CCCC2 (configuration not stated),"inconclusive [inhibitor, single point]",–
O=C(NCCCN1CCOCC1)C1Nc2ccc(OC(F)(F)F)cc2C2C=CCC12 (configuration not stated),"inconclusive [inhibitor, single point]",–
CCc1ccc(NC(=O)C2CCCN2S(=O)(=O)c2ccc3nc(-c4ccccc4)[nH]c3c2)cc1 (configuration not stated),active: 23.1 µM,–
CC(=O)Nc1ccc(NC(=O)c2c(C)nn(-c3ccccc3)c2Cl)cc1C,inactive,–
CN(c1ccc(C(=O)N2CCc3ccccc3C2)cc1)S(C)(=O)=O,"inconclusive [inhibitor, single point]",–
O=C(CSc1nn(-c2ccccc2)c(=S)s1)Nn1cnnc1,inactive,–

Compound,Potency,"activity change, negative = growth inhibition"
CCOc1ccc(NC(=O)Cc2c(O)c3ccccc3[nH]c2=O)cc1,inactive,–
CCOC(=O)Cc1c(C)nc2cc(-c3ccc(C(C)(C)C)cc3)nn2c1C,"inconclusive [inhibitor, single point]",–
O=S1(=O)CCS(=O)(=O)C1c1ccccc1,"inconclusive [inhibitor, single point]",–
O=C1[C@H]2[C@@H](c3ccc(F)cc3)N3C(=O)N(c4cccc(Br)c4)C(=O)[C@@]3(Cc3ccccc3)[C@H]2C(=O)N1C1CCCCC1,inactive,–
O=C(COc1cccc2c1CCN(Cc1ccc(Br)cc1)C2=O)N1CCOCC1,"inconclusive [inhibitor, partial curve]",–
Cc1csc2c(NC3CCN(Cc4ccccc4)CC3)ncnc12,active: 23.1 µM,–
Cc1csc2nc(COc3ccc(NC(=O)C(C)C)cc3)cc(=O)n12,inactive,–
N/C(=N\C(=S)Nc1ccccc1)c1ccccc1,"inconclusive [inhibitor, single point]",–
COc1cccc(NC(=O)CN(C)C(=O)c2cc(-c3ccc(F)cc3)nc3ccccc23)c1,"inconclusive [inhibitor, single point]",–
CCCCn1c(N)c(N(CCOC)C(=O)COC(=O)C(C)Oc2ccc(Cl)cc2)c(=O)[nH]c1=O (configuration not stated),inactive,–
Cc1ccc(C(C)C)c(OCCNCCc2ccccc2)c1,"inconclusive [inhibitor, single point]",–
COC(=O)c1cccc(NC(=O)CC2C(=O)NCCN2C(=O)Nc2cc(C)cc(C)c2)c1 (configuration not stated),inactive,–
C[C@]12C(=O)N(c3ccc(Cl)cc3)C(=O)N1[C@@H]1c3ccccc3OC[C@@H]1[C@H]2c1ccccc1,"inconclusive [inhibitor, single point]",–
CCC(=O)N(CC(=O)Nc1sc(C)c(C)c1C(N)=O)C1CCCC1,active: 23.1 µM,–
CCN(CC)S(=O)(=O)c1cccc2cccnc12,inactive,–
O=S(=O)(NCc1ccco1)c1cccc2cccnc12,inactive,–
CC1(C)Cc2c(cnn2-c2ccc(F)cc2)C(NC(=O)c2cnccn2)C1 (configuration not stated),"inconclusive [inhibitor, single point]",–
COc1ccc(/C=C2\C=Cc3ccccc32)cc1OC,"inconclusive [inhibitor, single point]",–
C/C(=N\NC(=O)c1c(Cl)cnn1C)c1ccc(NC(=O)c2ccncc2)cc1,–,inconclusive: -31.5% [inhibitor]
CCOC(=O)c1c(NC(=O)CSc2nc(-c3ccc(OC)cc3)cc(C(F)(F)F)n2)sc(C)c1C,"inconclusive [inhibitor, partial curve]",–
COc1cc(C(=O)Nc2ccc3oc(-c4cccnc4)nc3c2)cc(OC)c1OC,active: 5.62 µM,–
COc1cc2c(cc1NC(=O)COCC(=O)O)oc1ccccc12,inactive,–
Cn1c(=O)c2c(nc(NC3CCCCC3)n2CC(=O)C23CC4CC(CC(C4)C2)C3)n(C)c1=O,"inconclusive [inhibitor, single point]",–
